Measurements reported in ChEMBL document CHEMBL1201862, “PubChem BioAssay data set” (2004).
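A five-concentration, 48-hour dose response in 96-well plates underlies each endpoint, interpolated linearly between surrounding concentrations. The concentration for 50% growth inhibition is given as GI50.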 Active and inactive are the calls of the source. Rule as the data show it: active = GI50 up to about 1.1 µM and inactive = higher.

These molecules were tested on NCI-H322M (assay: NCI tumour cell line growth inhibition, 48 h).
In the case of `COc1c(Cl)c(Cl)c(OC)c2c1C(=O)C=CC2=O`, the GI50 is reported as inactive: 33.7 µM. In the case of `Nc1ncnc2c1nc(Cl)n2C1OC(CO)C(O)C1O` (stereo unspecified), the GI50 is reported as inactive: 8.43 µM. With `COc1cccc(C2c3cc4c(cc3OC(C)(N3CCCC3)C2C)OCO4)c1O` (stereo unspecified) the GI50 was inactive: 2.19 µM. For `O=C1OCC2=C1C(c1ccc3c(c1)OCO3)c1cc3c(cc1O2)OCO3` (stereo unspecified), the GI50 was inactive: 1.5 µM. In the case of `CC(=O)C1C(=O)N(C(C)C)C[C@@H]2CCC(=O)C[C@H]12` (stereo partly specified), the GI50 is reported as inactive: > 100 µM. With `CCn1c2ccccc2c2ccc3c(c21)C(=O)C=CC3=O` the GI50 was inactive: 24.8 µM. With `CC(C)c1ccc(/C=C2/C=C(c3ccc4ccccc4c3)OC2=O)cc1` the GI50 was inactive: > 100 µM. In the case of `CC#CC(O)(C(=O)OC1CCCN(C)C1)C1=CC=CCC1` (stereo unspecified), the GI50 is reported as inactive: > 100 µM. For `CC(C)(C)C1=CC(=C(c2ccc(-c3c4nc(c(-c5ccc(C(=C6C=C(C(C)(C)C)C(=O)C(C(C)(C)C)=C6)c6cc(C(C)(C)C)c(O)c(C(C)(C)C)c6)cc5)c5ccc([nH]5)c(-c5ccc(C(=C6C=C(C(C)(C)C)C(=O)C(C(C)(C)C)=C6)c6cc(C(C)(C)C)c(O)c(C(C)(C)C)c6)cc5)c5nc(c(-c6ccc(C(=C7C=C(C(C)(C)C)C(=O)C(C(C)(C)C)=C7)c7cc(C(C)(C)C)c(O)c(C(C)(C)C)c7)cc6)c6ccc3[nH]6)C=C5)C=C4)cc2)c2cc(C(C)(C)C)c(O)c(C(C)(C)C)c2)C=C(C(C)(C)C)C1=O`, the GI50 was inactive: > 100 µM. With `O=[N+]([O-])c1ccc(NN=C2CN3CCN(C2)c2ccccc23)c([N+](=O)[O-])c1` the GI50 was inactive: > 100 µM. `CCC1=[N+](CC)CCN1CC` was tested, and the GI50 was inactive: > 100 µM. With `C[C@H](C1CC2(C)OC2(C)C(=O)O1)[C@H]1CC[C@H]2[C@@H]3[C@@H]4O[C@@H]4[C@@]4(O)CC=CC(=O)[C@]4(C)[C@H]3CC[C@]12C` (stereo partly specified) the GI50 was inactive: > 50 µM. For `O=[N+]([O-])c1ccc(Cl)cc1C1ON=C(c2ccccc2)N1C12CC3CC(CC(C3)C1)C2` (stereo unspecified), the GI50 was inactive: > 100 µM. `O=C1NC(Nc2ccccc2)=NC(C(F)(F)F)(C(F)(F)F)N1` was tested, and the GI50 was inactive: 57.7 µM. For `C[C@]12CCCC(=O)C1C[C@H](C(=O)O)CC2` (stereo partly specified), the GI50 was inactive: > 100 µM. `COC(=O)N1CC2(CO)C3CC=C(C(=O)Nc4ccccc4Br)C2C1C3Br` (stereo unspecified) was tested, and the GI50 was inactive: > 50 µM. With `CC(=O)OCC1OC(n2c(C)c(C)cc(C#N)c2=S)C(OC(C)=O)C(OC(C)=O)C1OC(C)=O` (stereo unspecified) the GI50 was inactive: > 100 µM. `O=P1(Oc2ccccc2)N=P(c2ccccc2)(c2ccccc2)C=C(c2ccc(Cl)cc2)N1` (stereo unspecified) was tested, and the GI50 was inactive: 13.3 µM. With `O=C(O)[C@@H]1CCS(=O)(=O)N1` the GI50 was inactive: > 100 µM. With `C=C(c1ccccc1)c1ccccc1-c1cc(-c2ccccc2)cc(-c2ccccc2)n1` the GI50 was inactive: > 100 µM. With `N#Cc1nc(/C=C/c2cccnc2)oc1N` the GI50 was inactive: > 100 µM. With `CCOc1ccc(NC(=O)/C(=C/c2ccccc2)C(C)=O)cc1` the GI50 was inactive: 14.5 µM. In the case of `O=C1NC(=O)C2C1c1[nH]c3ccccc3c1C1CCCC12` (stereo unspecified), the GI50 is reported as inactive: 15.8 µM. In the case of `CCOC(=O)C(/C(=N\NC(=O)OC)C(=O)Nc1cc(OC)ccc1OC)c1cnc2ccccc2n1` (stereo unspecified), the GI50 is reported as inactive: > 100 µM. For `CC(C)=CCC[C@@H](C)c1c2nc3ccccc3sc-2c(C)c(=O)c1O`, the GI50 was inactive: 7.64 µM. In the case of `Cn1cnc([N+](=O)[O-])c1Sc1nccn1-c1ccccc1`, the GI50 is reported as inactive: 77.3 µM. For `COc1ccc(OC)c2c1C(=O)C(O)=C(Cl)C2=O`, the GI50 was inactive: > 100 µM. `ClCCCSSCCCCl` was tested, and the GI50 was inactive: 64 µM. `Cc1nnc(N)nc1/C=C\c1ccc(Cl)cc1Cl` was tested, and the GI50 was inactive: 66.7 µM. For `C[C@@H](c1ccccc1)n1c(N)c(-c2ccccn2)c2ccc([N+](=O)[O-])cc2c1=O`, the GI50 was inactive: 48.9 µM. `NCCSC1(O)C(=O)c2ccccc2-c2ccccc21` (stereo unspecified) was tested, and the GI50 was inactive: 1.59 µM. For `CC(=O)O[C@H]1C(=O)[C@]2(C)[C@@H](OC(=O)OCCC(O)CO)C[C@H]3OC[C@@]3(OC(C)=O)[C@H]2[C@H](OC(=O)c2ccccc2)[C@]2(O)C[C@H](OC(=O)[C@H](O)[C@@H](NC(=O)c3ccccc3)c3ccccc3)C(C)=C1C2(C)C` (stereo partly specified), the GI50 was active: 0.027 µM. With `COC(=O)C1=C(O)C(C(=O)OC)[C@]2(O)[C@H](C(=O)OC)[C@H]1C[C@@H](c1ccc(F)cc1)[C@H]2C(=O)OC` (stereo partly specified) the GI50 was inactive: 14.1 µM. For `Oc1ccc(Cl)cc1C1=NC(NCN2CCN(CNC3=NC(c4ccccc4)CC(c4cc(Cl)ccc4O)=N3)CC2)=NC(c2ccccc2)C1` (stereo unspecified), the GI50 was inactive: 41.6 µM. With `COc1ccc(C2=C(Cl)c3cc(OC)c(OC)cc3C2Cl)cc1OC` (stereo unspecified) the GI50 was inactive: 20.7 µM. In the case of `O=C(NCCCl)O/N=C/c1cccnc1`, the GI50 is reported as inactive: > 100 µM. In the case of `O=[N+]([O-])c1ccc2c(Nc3ccccc3-c3ccccc3Nc3c4ccccc4nc4cc([N+](=O)[O-])ccc34)c3ccccc3nc2c1`, the GI50 is reported as inactive: 13.4 µM. With `CC(=O)OCC1OC(NC(=S)Nn2c(=O)[nH]c3ccccc3c2=O)C(OC(C)=O)C(OC(C)=O)C1OC(C)=O` (stereo unspecified) the GI50 was inactive: > 100 µM. For `N#CC12C(=O)N=C(N)C1(C#N)C(c1ccco1)NC1=C2CCCC1` (stereo unspecified), the GI50 was inactive: > 100 µM. In the case of `CN/C(=N/C#N)NCc1ccccc1`, the GI50 is reported as inactive: > 100 µM. With `c1ccc(-c2cnc3nc4ccccc4nc3n2)cc1` the GI50 was inactive: 5.37 µM. For `Brc1ccc(-c2ccc(-c3ccc(-c4ccc(Br)s4)s3)s2)s1`, the GI50 was inactive: > 100 µM. For `O/N=C1/C(=C/c2ccc(Cl)cc2)CCCC1C(NO)c1ccc(Cl)cc1` (stereo unspecified), the GI50 was inactive: 15.4 µM. `CCCCC1Cc2cc(OC)ccc2-c2nc3cc(OC)ccc3n21.CCCCC1Cc2cc(OC)ccc2-c2nc3ccc(OC)cc3n21` (stereo unspecified) was tested, and the GI50 was inactive: 16.8 µM. `CC(NC(=O)CNP(=O)(c1ccccc1)c1ccccc1)C(=O)NC(Cc1ccccc1)C(=O)OCc1ccccc1` (stereo unspecified) was tested, and the GI50 was inactive: 56 µM. With `CSC1=C(C(=O)Nc2ccc(C)cc2)C(N)=NC1=O` the GI50 was inactive: > 100 µM. In the case of `OC1[C@@H]2[C@@H](O)[C@H](O)[C@@H](O)N2C[C@@H]1O` (stereo partly specified), the GI50 is reported as inactive: > 100 µM. `CN1OC(CO)CC12C1CC3CC(C1)CC2C3` (stereo unspecified) was tested, and the GI50 was inactive: > 100 µM. With `CCOP(=O)(OCC)/C(C#N)=C/c1ccco1` the GI50 was inactive: > 100 µM. `C/C=C/C1(NS(=O)(=O)c2ccc(C)cc2)CCC(C(C)(C)C)CC1` (stereo unspecified) was tested, and the GI50 was inactive: 28.3 µM. `N=C(N)N/N=C/c1c(-c2ccc(Cl)c(Cl)c2Cl)nc2sccn12` was tested, and the GI50 was inactive: 1.44 µM. In the case of `CC1=C(C(=O)Nc2ccccc2)C(c2ccc([N+](=O)[O-])cc2)C(C(=O)Nc2ccccc2)=C(C)N1`, the GI50 is reported as inactive: 38.6 µM. `Cc1ccsc1C(=O)C(CC(=O)c1cccs1)c1ccsc1` (stereo unspecified) was tested, and the GI50 was inactive: 51.4 µM. With `CC[C@H]1C=CCC[C@@]2(C[C@@H]3CC[C@@H]4[C@H](C(=O)OCCCCCCCCCCCCCCCC(=O)N(CCCN)C[C@@H](O)CCN)[C@]5(CCC[C@@H](C)O5)NC(=[N+]34)N2)O1` the GI50 was active: 0.826 µM. For `O=C1CCSc2nc(-c3ccc4c(c3)OCO4)nn21`, the GI50 was inactive: > 10 µM. For `C(=C\c1c2oc(-c3ccccc3)cc(-c3ccccc3)c-2c2ccccc12)/C=C1\c2ccccc2-c2c(-c3ccccc3)cc(-c3ccccc3)[o+]c21.[O-][Cl+3]([O-])([O-])[O-]`, the GI50 was inactive: > 100 µM. In the case of `CSC(SC)=C(C#N)C(=O)Nc1ccc(Cl)cc1`, the GI50 is reported as inactive: 37.8 µM. With `CCOC(=O)c1c2ccc(/C=C/C(=O)OC)ccc-2c(C(=O)OCC)c1N` the GI50 was inactive: 2.21 µM. With `O=C(NN1C(=O)CSC1c1ccco1)c1ccncc1` (stereo unspecified) the GI50 was inactive: > 100 µM. In the case of `C=C1C(=O)OC2C1CCC(=C)C1CC(O)C(=C)C12` (stereo unspecified), the GI50 is reported as inactive: 24.8 µM. `Cc1nc2cccc(F)c2c(=O)n1-c1nnc(C(F)(F)F)s1` was tested, and the GI50 was inactive: > 10 µM. `NC(=S)N/N=C1\C(=O)C=C(Nc2ccc(Cl)cc2Cl)c2ccccc21` was tested, and the GI50 was inactive: 39.7 µM. With `COC1(OC)CC2C(=O)N(Cc3ccccc3)C1C=C2S(=O)(=O)c1ccccc1` (stereo unspecified) the GI50 was inactive: 37.5 µM. In the case of `COc1cc(/C=C/C(=O)OC[C@H](Br)[C@H](OC(C)=O)c2ccc3c(c2)OCO3)cc(OC)c1OC`, the GI50 is reported as inactive: > 100 µM. In the case of `COc1ccccc1NC(=O)C(=O)C1C(=O)Nc2ccccc2[S+]1[O-]` (stereo unspecified), the GI50 is reported as inactive: > 100 µM. `C[C@]12c3c4cc(NC(=O)C(=O)NCc5ccc(-c6ccccn6)nc5)cc3Oc3cc(NC(=O)C(=O)NCc5ccc(-c6ccccn6)nc5)cc(c31)OC1C=C(NC(=O)C(=O)NCc3ccc(-c5ccccn5)nc3)C=C(O4)C12` (stereo partly specified) was tested, and the GI50 was inactive: 19.5 µM. `C#CCC1(C(=O)OCC)C(=O)c2ccccc2N(C)C1=O` (stereo unspecified) was tested, and the GI50 was inactive: > 100 µM. With `CCN(CC)C1Oc2cc3c(cc2C(c2ccc(OC)cc2)C1C)OCO3` (stereo unspecified) the GI50 was inactive: 21.4 µM. With `COc1cc2cc(OC)c3cc4c(cc3c2c(OC)c1OC)OCO4` the GI50 was inactive: 58.1 µM. For `CC(C)(Oc1ccc(C(=O)c2ccc(Cl)cc2)cc1Cl)C(=O)Nc1c(Cl)cccc1Cl`, the GI50 was inactive: > 100 µM. With `CCOC(=O)C1(CC(=O)O)CCCC1=O` (stereo unspecified) the GI50 was inactive: > 100 µM. With `O=C1OC(CC(=O)c2ccccc2Cl)C(Cl)=C1Cl` (stereo unspecified) the GI50 was inactive: > 100 µM. `C/C(=N\NC(N)=S)C(CN(CC(C)C)CC(C)C)C(=O)Nc1ccc(C)cc1C` (stereo unspecified) was tested, and the GI50 was inactive: > 100 µM. For `Nn1c(CCCl)nc2c(Br)cc(Br)cc2c1=O`, the GI50 was inactive: 25.5 µM. `CC(=O)NC1C(O)CC(OCCCSCCN)(C(=O)O)OC1C(O)C(O)CO` (stereo unspecified) was tested, and the GI50 was inactive: > 100 µM. With `CN(C)CCC(CCN(C)C)=NO` the GI50 was inactive: > 100 µM. For `COP1(=O)OCc2cnccc2O1` (stereo unspecified), the GI50 was inactive: > 100 µM. With `O=C(O)c1ccccc1/C=C1/Cc2ccc3c(c2C1=O)CCC3` the GI50 was inactive: 48 µM. With `O=C(O)c1ccc(/N=N/c2cc(S(=O)(=O)O)c3cccnc3c2O)cc1` the GI50 was inactive: > 100 µM. With `N#CC(C(=O)CCC(=O)C(C#N)c1ccccc1)c1ccccc1` (stereo unspecified) the GI50 was inactive: > 100 µM. In the case of `Cn1cc2ccccc2c1-c1nc(N)nc(F)n1`, the GI50 is reported as inactive: > 100 µM. `COc1cc2ccc3c4cc(OC)c(OC(C)C)cc4c[n+](C)c3c2cc1OC` was tested, and the GI50 was inactive: > 100 µM. `CCc1nn(CN2CCN(C)CC2)c(=S)n1/N=C\c1ccc(-c2ccc([N+](=O)[O-])cc2)o1` was tested, and the GI50 was inactive: > 100 µM. In the case of `O=S(=O)(O)c1ccc(NN(c2c(O)ccc3ccccc23)S(=O)(=O)O)cc1`, the GI50 is reported as inactive: > 100 µM. For `CN(C)CCCc1c[nH]c2ccccc12`, the GI50 was inactive: > 100 µM. With `Cc1ccc(NC(=O)S(N)(c2ccc(C)cc2)[N+](=O)[O-])cc1` (stereo unspecified) the GI50 was inactive: > 100 µM.
